In all, about 45,000 compounds went through this assay and about 200 (0.44%) were called active. Not shown: some 7% with an inconclusive outcome. Calls follow the shape of the dose curve; as a rule, active = well fitted activation curve with a large enough effect; inconclusive = small, poorly fitted or top-dose-only effect; inactive = no such curve, though single readings can be large or run the other way. The list shows a part of the results.
Test: qHTS of TDP-43 Inhibitors: NCGC Sytravon Library Screen; also: nearly all actives have a fitted effect of over 55% in size; as to growth rescue (activation): 0% is about no effect
Settings: yeast TDP-43 toxicity rescue, BacTiter-Glo growth, 24 h; series mostly up to 46.1 µM; growth rescue (activation): at the top concentration
Outline: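 TDP-43-expressing yeast, pregrown in raffinose, seeded at OD600 0.02 in galactose medium with compound for 24 hr at 30 deg C. Growth read by BacTiter-Glo luminescence, so rescue of toxicity appears as activation.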
Potency is read from the fitted curve at half-maximal effect.

| Compound | growth rescue (activation) | Potency |
| --- | --- | --- |
| CCOc1ccccc1NC(=O)Cn1nnc(C(=O)NCc2cccs2)c1N | inactive: -7.39% |  |
| O=C(NCc1ccc(N2CCCC2=O)cc1)c1cc(COc2c(F)cccc2F)on1 | inactive: 24.1% |  |
| O=C(NCC1CCCO1)c1cc([N+](=O)[O-])ccc1Cl (configuration not stated) | inactive: 12.7% |  |
| CCN(CC)NC(=O)Nc1ccccc1 | inactive: -20.4% |  |
| CN(C)S(=O)(=O)c1ccc(Cl)c(NC(=O)CN2CCc3ccccc3C2)c1 | inactive: 3.14% |  |
| Cc1cccc(C(=O)Nc2ccc(C(=O)N3CCCCC3C)cc2)c1 (configuration not stated) | inactive: 7.07% |  |
| Cc1ccc(S(=O)(=O)Nc2cc(C)c(O)cc2C)cc1 | inactive: 3.49% |  |
| CC(=O)c1cc(C(=O)Nc2ccc3ccccc3c2)c(C)o1 | inactive: 9.37% |  |
| O=C(CSc1nc2ccccc2[nH]1)Nc1nc(-c2ccc(Br)cc2)cs1 | inactive: 17% |  |
| O=C(CSc1nc2ccccc2c(=O)[nH]1)Nc1ccc([N+](=O)[O-])cc1 | inactive: 2.12% |  |
| CC1CN(c2ccc([N+](=O)[O-])c(NCCOc3ccccc3)c2)CC(C)N1 (configuration not stated) | inactive: -3.09% |  |
| Cc1ccc(NC(=O)c2ccco2)c(NC(=O)CN2C(=O)c3ccccc3C2=O)c1 | inactive: 5.94% |  |
| O=C(NCCSc1ccccc1)c1ccc(Br)cc1 | inactive: 17.6% |  |
| Cc1ccc(-n2c(O)c(C=Nc3ccccc3-c3n[nH]c(=S)[nH]c3=O)c3ccccc3c2=O)cc1C | inactive: 5.52% |  |
| Cn1nc(C(=O)NNC(=O)COc2ccccc2)c2ccccc2c1=O | inactive: 1.21% |  |
| O=C(Nc1ccc(S(=O)(=O)NCc2ccco2)cc1)c1ccc(F)cc1 | inactive: -20.7% |  |
| CC(=O)NC1CC2CCCC(C1)N2C(=O)Nc1cccc(C)c1 (configuration not stated) | inactive: -2.87% |  |
| Brc1ccccc1OCCOc1cccc2cccnc12 | inactive: 26.5% |  |
| Cn1c(SCC(=O)NC2CC2)nnc1-c1ccccc1Cl | inactive: 7.68% |  |
| Cc1ccc(C(=O)N/N=C/c2sc(=O)n(Cc3cccc(C(=O)O)c3)c2Cl)cc1 | inactive: 10.4% |  |
| O=C1CC(c2ccco2)CC(O)=C1C=NCCN1CCN(C(=O)Nc2ccc(Cl)cc2)CC1 (configuration not stated) | inactive: -7.65% |  |
| C=CCn1c(SCC(=O)Nc2ccc(O)cc2)nc2sc(CC)cc2c1=O | inactive: 8.41% |  |

| Compound | growth rescue (activation) | Potency |
| --- | --- | --- |
| CC(C)c1nc(SCC(=O)Nc2cccc3ccccc23)n[nH]1 | inactive: 13.5% |  |
| COc1ccc(-c2c(=O)n(OCc3nc4ccccc4[nH]3)c3ccccc3[n+]2[O-])cc1 | inactive: 13.4% |  |
| COC(=O)c1nn(-c2nc(-c3cccc(OC)c3)cc(C(F)(F)F)n2)cc1[N+](=O)[O-] | inactive: -4.68% |  |
| Cc1c(NC(N)=O)c(=O)n(-c2ccccc2)n1C | inactive: 6.45% |  |
| N#Cc1cccc(S(=O)(=O)NNC(=O)C23CC4CC(CC(C4)C2)C3)c1 | inactive: 14% |  |
| CCOC(=O)C(=O)C1=CN(Cc2ccccc2)C=C(C#N)C1 | inactive: 11.4% |  |
| Cc1ccccc1-n1ccnc1SCC(=O)Nc1cccc(S(=O)(=O)NC2=NCCC2)c1 | inactive: 4.54% |  |
| Cc1cccc(C(=O)N[C@H](C(=O)OCC(=O)NC2CCS(=O)(=O)C2)C(C)C)c1 (some centres not stated) | inactive: -6.16% |  |
| CCN(CC)S(=O)(=O)c1cccc(NC2=NCC(C)S2)c1 (configuration not stated) | inactive: 9.18% |  |
| C=CCNC(=O)C1CCCN(S(=O)(=O)c2ccc(-n3cnnn3)cc2)C1 (configuration not stated) | inactive: 15.1% |  |
| O=C(Nc1nc2ccccc2[nH]1)c1cccc([N+](=O)[O-])c1 | inactive: -1.1% |  |
| O=C(CNc1ccc2ccccc2c1)N/N=C/c1ccccn1 | inactive: 9.12% |  |
| O=C(CCc1nc2ccccc2c(=O)[nH]1)OCc1cccc(C(F)(F)F)c1 | inactive: 27.5% |  |
| COc1ccc2c(c1)c(C(O)CN1CCC(Cc3ccccc3)CC1)c(C)n2C (configuration not stated) | inactive: 24.3% |  |
| COc1ccc(/C=C/c2nc(-c3ccccc3)cc(=O)[nH]2)cc1 | inactive: 17.7% |  |
| COc1ccc(S(=O)(=O)N2CCN(c3cnccn3)CC2)cc1OC | inactive: -19.8% |  |
| NC(=O)CN1C(=O)NC2(CCOc3ccccc32)C1=O (configuration not stated) | inactive: 13.6% |  |
| CNc1ncnc2c1ncn2[C@H]1CN(Cc2ccco2)C[C@@H](CO)O1 | inactive: 4.64% |  |
| COCCNC(=S)NNC(=O)c1cccs1 | inactive: 1.55% |  |
| COc1ccc(-c2nnc(CSc3nc4ccccc4c(=O)n3CC3CCCO3)o2)cc1OC (configuration not stated) | inactive: -0.142% |  |
| CN(C(=O)C1CCC(=O)N(Cc2ccccc2F)C1)C1CCOCC1 (configuration not stated) | inactive: 12.8% |  |
| CC(C(=O)OCC(=O)c1ccc(Br)cc1)N1C(=O)C2C3C=CC(C3)C2C1=O (configuration not stated) | inactive: -6.84% |  |

| Compound | growth rescue (activation) | Potency |
| --- | --- | --- |
| COc1ccc(C(=O)Nc2ccc(S(=O)(=O)Nc3cc(C)nc(C)n3)cc2)cc1OC | inactive: 8.57% |  |
| Cc1ccc(-c2ccc(CCC(=O)O)n2NC(=O)c2ccc([N+](=O)[O-])cc2)cc1 | inactive: 21.1% |  |
| Cc1cc(Cl)c(OCCOCCN2CCN(C)CC2)c(Br)c1 | inactive: 2.37% |  |
| Nc1nnc(-c2ccccc2F)s1 | inactive: -10.1% |  |
| COc1cc(NC(=S)NC(=O)c2ccc(F)cc2)ccc1NC(=O)c1ccco1 | inactive: 2.5% |  |
| COc1ccc(OCC(=O)NNC(=O)CCc2ccccc2)cc1 | inactive: 5.88% |  |
| O=C(c1cccs1)N1C(=O)c2cccc3cccc1c23 | inactive: 5.87% |  |
| COc1ccc(N2CCN(Cc3cc(OC)c(O)c([N+](=O)[O-])c3)CC2)cc1 | inactive: 12.2% |  |
| CN(CC(=O)NCCc1ccccc1)Cc1ccco1 | inactive: 9.5% |  |
| Cc1ccc(S(=O)(=O)NC(=O)Nc2cccc(S(=O)(=O)N(C)C)c2)cc1 | inactive: 21.2% |  |
| O=C(NC(Cc1ccccc1)C(=O)O)/C(=C/c1ccccc1)NC(=O)c1ccco1 (configuration not stated) | inactive: 0.431% |  |
| CC(C)CNC(=O)C1(C)CCCN1C(=O)c1csnn1 (configuration not stated) | inactive: 5.82% |  |
| c1csc(-c2cn3ccc4ccccc4c3n2)c1 | inactive: -15.4% |  |
| COc1ccc(NC(=O)Cn2ccc(C(F)(F)F)n2)cc1S(=O)(=O)N1CCOCC1 | inactive: -0.285% |  |
| Cc1cc(C)nc(CC(N)=O)n1 | inactive: 9.61% |  |
| CCc1cc[n+](CC(=O)Nc2ccc(Cl)cc2Cl)cc1 | inactive: 6.75% |  |
| COc1ccc(-c2noc(-c3csc([C@@H]4O[C@H](CO)[C@H](O)[C@H](O)[C@H]4O)n3)n2)cc1OC | inactive: 5.92% |  |
| CCOC(=O)C1CCN(S(=O)(=O)c2ccc(OCC)cc2)CC1 | inactive: -1.84% |  |
| CCOC(=O)/C=C1/SCC(=O)N1CC(=O)Nc1ccc2c(c1)CCC2 | inactive: 12.2% |  |
| Cc1ccc(-n2c(CNc3ccc(F)cc3)nnc2SCC(=O)O)cc1 | inactive: 12.9% |  |
| CC1CN(c2nnnn2-c2ccccc2)CC(C)O1 (configuration not stated) | inactive: 9.28% |  |
| CCN(C(=O)c1cccnc1SC)C12CC3CC(CC(C3)C1)C2 | inactive: -27% |  |

| Compound | growth rescue (activation) | Potency |
| --- | --- | --- |
| COc1cc(C2C(C(=O)/C=C/c3ccccc3)=C(O)C(=O)N2c2ccccn2)ccc1O (configuration not stated) | inactive: -1.19% |  |
| COc1ccc(S(=O)(=O)NC(C)C(=O)NCc2ccccn2)cc1OC (configuration not stated) | inactive: 16.1% |  |
| COC(=O)c1ccc(N2C(=O)CC(N3CCOCC3)C2=O)cc1 (configuration not stated) |  | active: 15.8 µM |
| Cc1cccc(C)c1NC(=O)C1(N(C(=O)c2ccccn2)c2ccc(O)cc2)CCCCC1 | inactive: 9.9% |  |
| COCCCNC(=O)c1csc([C@@H]2C[C@H](O)[C@@H](CO)O2)n1 | inactive: 9.8% |  |
| O=Cc1ccc(OC(=O)c2cc(Cl)nc3ccccc23)cc1 | inactive: 7.47% |  |
| O=C(O)c1ccc2c(c1)C(=O)N(c1cccc(S(=O)(=O)Nc3cccc(C(F)(F)F)c3)c1)C2=O | inactive: 14.6% |  |
| COc1cccc(/C=C2\CCC(C3CCCC3)C2=O)c1OC (configuration not stated) | inactive: 15.9% |  |
| O=C(O)c1ccc2c3c(cccc13)C(=O)N(OS(=O)(=O)c1ccccc1)C2=O | inactive: -9.38% |  |
| CC(C)(CNS(=O)(=O)c1cccs1)N1CCOCC1 | inactive: 5.01% |  |
| Cc1ccccc1N(CC(=O)N1CCOCC1)S(C)(=O)=O | inactive: -21.2% |  |
| O=C(NN=C1CCCCCC1)c1ccc2c(c1)OCO2 | inactive: 7.39% |  |
| Cc1ccc(C(=O)Oc2oc(-c3ccccc3)nc2C=Nc2ccc(N(C)C)cc2)cc1 | inactive: 7.74% |  |
| O=C(Nc1ccc(C(=O)O)cc1)/C(=C\C=C\c1ccccc1)NC(=O)c1ccc(Br)cc1 | inactive: 10.5% |  |
| CCOC(=O)c1c(NC(C)=O)c2c3c(sc2n1Cc1c(C)cc(C)cc1C)CCCC3 | inactive: 4.9% |  |
| Cc1ccc(NC(=O)c2c3c(nc4ccccc24)CCC3)cc1S(=O)(=O)N(C)C | inactive: -5.9% |  |
| COc1cccc(C(NC(C)=O)c2nc(-c3cccc(O)c3)cs2)c1 (configuration not stated) | inactive: 27.1% |  |
| CCCC1(CCC)NC(=O)N(CC(=O)Nc2ccc3c(c2)OCCO3)C1=O | inactive: -3.37% |  |
| Cc1ccc(NC(=O)C(=O)NC(C)C2COc3ccccc3O2)cc1 (configuration not stated) | inactive: 25.7% |  |
| Cn1cc(CN2C[C@]3(C)C[C@H]2CC(C)(C)C3)c(-c2ccc3c(c2)OCCO3)n1 | inactive: 13.4% |  |
| COc1ccc(C(=O)NC2CC2)cc1OC1CCN(Cc2ccc(F)cc2)CC1 | inactive: 4.9% |  |
| O=C(/C=C/c1ccccc1)NC(=S)NNS(=O)(=O)c1ccccc1 | inactive: 1.96% |  |

| Compound | growth rescue (activation) | Potency |
| --- | --- | --- |
| COc1cc(C(N)=O)cc(Br)c1OC | inactive: 34.1% |  |
| O=C1/C(=C\c2cccs2)SC(=S)N1C1CCS(=O)(=O)C1 (configuration not stated) | inactive: 5.99% |  |
| CN(C)C(=S)Nc1ccc2c(c1)OCO2 | inactive: 6.5% |  |
| O=C(/C=C/c1cc([N+](=O)[O-])ccc1OC(F)F)Nc1cccc(OC(F)F)c1 | inactive: -24.5% |  |
| c1ccc(CSCCc2ccncc2)cc1 | inactive: -33.9% |  |
| Cc1ccc(S(=O)(=O)NCCC(=O)Nc2cc(S(=O)(=O)N(C)C)ccc2C)cc1C | inactive: 1.28% |  |
| CCN(CC)C(=O)Cn1nnc(-c2ccc(S(C)(=O)=O)cc2)n1 | inactive: -16% |  |
| Cc1ccc(NC(=O)N2CCCC2C(=O)Nc2nnc(C(C)C)s2)cc1 (configuration not stated) | inactive: 6.55% |  |
| CCOC(=O)C1CCN(C(=O)/C=C/c2cc(OC)c(OC)c(OC)c2)CC1 | inactive: 20.1% |  |
| O=C1/C(=C/c2ccc(F)cc2)SC(=S)N1N1CCOCC1 | inactive: 0.728% |  |
| O=C(CNCc1ccccc1)NCCCN1CCCC1=O | inactive: -8.74% |  |
| CC(C)C(NC(=O)c1ccc(Cl)cc1Cl)C(=O)N1CCN(S(=O)(=O)c2ccccc2)CC1 (configuration not stated) | inactive: 10.8% |  |
| O=[N+]([O-])c1ccc(C(O)CN2CCOCC2)cc1 (configuration not stated) | inactive: 17.5% |  |
| COc1ccc(CC(=O)NCC(=O)Nc2ccccc2Br)cc1 | inactive: -1.05% |  |
| CCOC(=O)c1c(NC(C)=O)sc(C(=O)NC2CCCC2)c1C | inactive: 20.3% |  |
| COc1ccc(-c2cc(C(=O)NCc3cccc(C(F)(F)F)c3)[nH]n2)c(C)c1 | inactive: -4.89% |  |
| COc1ccc(NC(=O)c2oc3ccc(S(=O)(=O)N4CCOCC4)cc3c2C)c(OC)c1 | inactive: 22.1% |  |
| Cc1cccc(NC(=O)NCC(c2cccnc2)N2CCOCC2)c1 (configuration not stated) | inactive: 24.2% |  |
| Cn1c(C(=O)N[C@@H](C(=O)O)c2ccccc2)cc2cc(Cl)ccc21 | inactive: 7.73% |  |
